Data: the BET-seq Pho4 binding data (Le et al. 2018)
The other results are listed elsewhere or left out. The energies were worked out here from pooled read counts, against the library average; single values are noisy.

target: T1, Pho4 (S. cerevisiae) (UniProt P07270); assay: relative binding free energy (BET-seq); higher = weaker binding; settings: reference: library average
T1 sequence: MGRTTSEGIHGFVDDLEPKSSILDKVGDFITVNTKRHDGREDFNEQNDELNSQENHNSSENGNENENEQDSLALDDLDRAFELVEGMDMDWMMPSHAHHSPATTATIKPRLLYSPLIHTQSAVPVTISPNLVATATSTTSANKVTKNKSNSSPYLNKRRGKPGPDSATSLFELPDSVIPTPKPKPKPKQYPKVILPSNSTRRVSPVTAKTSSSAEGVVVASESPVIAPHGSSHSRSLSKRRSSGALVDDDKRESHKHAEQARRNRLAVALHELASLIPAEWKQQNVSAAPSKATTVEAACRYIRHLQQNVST

Which “relative binding free energy” value does the source give for TTGCGCACGTGGTGGT here?
The value was -0.19 kcal/mol.

With AGGAGCACGTGTTGGG as the sequence, how does the “relative binding free energy” value read?
The value was -0.17 kcal/mol.

With ATGTGCACGTGTAAGG as the sequence, how does the “relative binding free energy” value read?
Its value is 0.14 kcal/mol.

With AGGTTCACGTGGGCGG as the sequence, how does the “relative binding free energy” value read?
The value was 0.12 kcal/mol.

CGTTACACGTGGTTAT was tested. Which “relative binding free energy” value did it give?
Its value is -0.05 kcal/mol.

Which “relative binding free energy” value does the source give for AATATCACGTGGGTAA here?
The value was -0.06 kcal/mol.

How did the “relative binding free energy” value turn out when CGTGGCACGTGTGCTA was run?
Its value is -0.04 kcal/mol.

AAAGTCACGTGGTAAG was tested. Which “relative binding free energy” value did it give?
Its value is 0.03 kcal/mol.

Which “relative binding free energy” value does the source give for TGGTTCACGTGAGCCG here?
The value was 0.38 kcal/mol.

TCCTGCACGTGGTGGT was tested. Which “relative binding free energy” value did it give?
The value was -0.13 kcal/mol.

How did the “relative binding free energy” value turn out when GGGGACACGTGCGTAG was run?
Its value is 0.04 kcal/mol.

For CGTGACACGTGGCAGG, which “relative binding free energy” value is on record?
The value was -0.1 kcal/mol.

Which “relative binding free energy” value does the source give for TTTTCCACGTGGTTTA here?
Its value is -0.06 kcal/mol.

How did the “relative binding free energy” value turn out when GGTTGCACGTGGATGA was run?
The value was 0.07 kcal/mol.

How did the “relative binding free energy” value turn out when CTTTTCACGTGTTTTG was run?
Its value is 0.18 kcal/mol.

Which “relative binding free energy” value does the source give for CAGGACACGTGTAGTG here?
Its value is -0.04 kcal/mol.

Which “relative binding free energy” value does the source give for GTTTTCACGTGTTGTA here?
Its value is 0.34 kcal/mol.

For CTGTTCACGTGATTGG, which “relative binding free energy” value is on record?
The value was 0.3 kcal/mol.

AGATTCACGTGTCAGG was tested. Which “relative binding free energy” value did it give?
Its value is 0.4 kcal/mol.

Which “relative binding free energy” value does the source give for GATGACACGTGAGGGC here?
Its value is 0.29 kcal/mol.

With CTAGTCACGTGTTATG as the sequence, how does the “relative binding free energy” value read?
Its value is 0.17 kcal/mol.

How did the “relative binding free energy” value turn out when AATATCACGTGTGAGT was run?
The value was 0.12 kcal/mol.

TTTATCACGTGCAGGT was tested. Which “relative binding free energy” value did it give?
Its value is 0.29 kcal/mol.

With GCATGCACGTGGGATT as the sequence, how does the “relative binding free energy” value read?
The value was -0.04 kcal/mol.

How did the “relative binding free energy” value turn out when TGGATCACGTGACGAG was run?
The value was 0.33 kcal/mol.

Which “relative binding free energy” value does the source give for AAGATCACGTGAGTGT here?
Its value is 0.26 kcal/mol.

Which “relative binding free energy” value does the source give for GGCTTCACGTGGGTAA here?
The value was 0.29 kcal/mol.

How did the “relative binding free energy” value turn out when GGTTACACGTGTGTTA was run?
The value was 0.08 kcal/mol.

Which “relative binding free energy” value does the source give for TTGGTCACGTGTCGGT here?
The value was 0.25 kcal/mol.

AGAGTCACGTGTATAG was tested. Which “relative binding free energy” value did it give?
The value was 0.13 kcal/mol.

Which “relative binding free energy” value does the source give for AAGTGCACGTGTTGGC here?
Its value is 0.1 kcal/mol.

For CGGTTCACGTGGTAGG, which “relative binding free energy” value is on record?
Its value is 0.23 kcal/mol.

For TGGTTCACGTGTCTTT, which “relative binding free energy” value is on record?
Its value is 0.24 kcal/mol.

How did the “relative binding free energy” value turn out when GGGTACACGTGTTTAG was run?
The value was 0.06 kcal/mol.

AGTTTCACGTGTACTG was tested. Which “relative binding free energy” value did it give?
Its value is 0.22 kcal/mol.

For GTGACCACGTGTGGTT, which “relative binding free energy” value is on record?
The value was 0.06 kcal/mol.

AGGTTCACGTGGAGTT was tested. Which “relative binding free energy” value did it give?
The value was 0.38 kcal/mol.

How did the “relative binding free energy” value turn out when GGGAGCACGTGTCGGT was run?
The value was -0.21 kcal/mol.

With TTAAGCACGTGTATAG as the sequence, how does the “relative binding free energy” value read?
The value was -0.02 kcal/mol.

ACGTACACGTGTTGGT was tested. Which “relative binding free energy” value did it give?
The value was 0.11 kcal/mol.

How did the “relative binding free energy” value turn out when AGTGCCACGTGTAGTT was run?
Its value is 0.03 kcal/mol.

With TGTGGCACGTGGACAA as the sequence, how does the “relative binding free energy” value read?
The value was -0.1 kcal/mol.

For GGCTCCACGTGGATGG, which “relative binding free energy” value is on record?
The value was 0.19 kcal/mol.

Which “relative binding free energy” value does the source give for GAGGGCACGTGGGCTT here?
The value was -0.25 kcal/mol.

With GGTGACACGTGGAGGG as the sequence, how does the “relative binding free energy” value read?
Its value is 0.03 kcal/mol.

With GGTAACACGTGAGGGC as the sequence, how does the “relative binding free energy” value read?
The value was 0.11 kcal/mol.

GATACCACGTGAGGGT was tested. Which “relative binding free energy” value did it give?
The value was 0.3 kcal/mol.

Which “relative binding free energy” value does the source give for GGGGCCACGTGGTGCG here?
The value was -0.1 kcal/mol.

GAGTACACGTGATGGT was tested. Which “relative binding free energy” value did it give?
The value was 0.28 kcal/mol.

With TTGGCCACGTGTGGAA as the sequence, how does the “relative binding free energy” value read?
Its value is 0.05 kcal/mol.

Which “relative binding free energy” value does the source give for GGGGGCACGTGCAGTT here?
Its value is -0.13 kcal/mol.

For GGATGCACGTGAATAG, which “relative binding free energy” value is on record?
Its value is 0.29 kcal/mol.

How did the “relative binding free energy” value turn out when GTTAACACGTGGTAGA was run?
The value was -0.08 kcal/mol.

GGAGTCACGTGTCGGC was tested. Which “relative binding free energy” value did it give?
Its value is 0.26 kcal/mol.

How did the “relative binding free energy” value turn out when TGTTTCACGTGTGGAC was run?
Its value is 0.29 kcal/mol.

CTAGTCACGTGTTAAG was tested. Which “relative binding free energy” value did it give?
The value was 0.09 kcal/mol.

ATCGACACGTGGGGGA was tested. Which “relative binding free energy” value did it give?
Its value is -0.06 kcal/mol.

How did the “relative binding free energy” value turn out when TTCTGCACGTGAATGG was run?
Its value is 0.28 kcal/mol.

Which “relative binding free energy” value does the source give for TGTAGCACGTGTTATC here?
Its value is -0.04 kcal/mol.

With TTGGTCACGTGGTTTT as the sequence, how does the “relative binding free energy” value read?
The value was 0.21 kcal/mol.

With GGTAGCACGTGAGACG as the sequence, how does the “relative binding free energy” value read?
The value was 0.19 kcal/mol.

For TTCTGCACGTGTTAGT, which “relative binding free energy” value is on record?
Its value is 0.09 kcal/mol.

TAGATCACGTGGGGAG was tested. Which “relative binding free energy” value did it give?
The value was 0.01 kcal/mol.
